Laboratory results taken from PubChem BioAssay AID504444 (National Center for Advancing Translational Sciences (NCATS), 2011).
In all, about 360,000 compounds went through this assay and about 7,500 (2.1%) were called active. Inconclusive results (about 20%) are left out. Calls come from the whole dose curve; as a rule, active = well fitted inhibition curve with a large enough effect; inconclusive = small, poorly fitted or top-dose-only effect, or effect the other way; inactive = flat fitted curve, though single readings scatter. Only a part is listed here, and it is no random draw. A structure can be active in one record and inactive in another.

Assay: Nrf2 qHTS screen for inhibitors; note: nearly all actives have a fitted effect of over 60% in size
Conditions: A549 ARE-Fluc reporter, luciferase luminescence, 18-24 h; series mostly up to 46 µM; activity change, negative = inhibition: at the top concentration
Description: NIH Molecular Libraries Probe Production Network [MLPCN]
NIH Chemical Genomics Center [NCGC]
Assay Provider: Shyam Biswal, Johns Hopkins University
Nrf2 is a transcription factor that maintains cellular redox homoestasis and protects cells from xenobiotics. Nrf2 binds to the antioxidant response element (ARE) to induce gene expression of a broad spectrum of genes that encode for antioxidants. […] Finding a small molecule that act as an inhibitor of Nrf2 function would represent a novel therapeutic target that could lead to improvement in survival of patients undergoing chemo- and/or radio- therapy.
This is the Nrf2 activity measured in the luminescent read.
1. Shibata, T., et al., Genetic Alteration of Keap1 Confers Constitutive Nrf2 Activation and Resistance to Chemotherapy in Gallbladder Cancer. Gastroenterology, 2008.
2. Sjoblom, T., et al., The consensus coding sequences of human breast and colorectal cancers. Science, 2006. 314(5797): p. 268-74.
NCGC Assay Protocol Summary:
A concentration-response assay was performed with A549 ARE_Fluc cells which are suspended in 5% FBS OPTI-MEM. Five uL were dispensed into 1536-well white TC-treated plate using the Kalypsys dispenser to achieve a density of 5000 cells/well in all columns except column 1. The plate is incubated at 37deg C at 5% CO2 for 2 hours before 23 nL of compounds are added with the Kalypsys pin tool equipped with a 1,536-pin array containing 10-nL slotted pins (FP1S10, 0.457-mm diameter, 50.8 mm long; V&P Scientific). The control compounds Budesonide and Staurosporine are both added at a concentration of 2mM and Budesonide is also added as a 1:10 titration, starting at 200uM, to achieve dose-response. After an 18-24 hour incubation at 37deg C at 5% CO2, 5ul of medium is added to column 1. Afterwards 1ul of 5x of CellTiter-Fluor (Promega) is added to every well. The plate is then incubated at 37deg C at 5% CO2 for 30 minutes before they are read on the ViewLux (Perkin Elmer) for a fluorescent read Ex=405(10)/Em=525(10) for a 3 second exposure, 2x binning, and high gain. Then 3 uL of 3x BugLite is dispensed into all wells and the plate is incubated at ambient room temperature for 15 minutes. Afterwards another ViewLux read is performed using the clear filter to get a luminescent read with the settings of 40 second exposure, 2x binning, and high gain. Cytotoxicity is assessed through the first fluorescent read and then biochemical activity against Nrf2 is measured in the luminescent read.
% is set by controls: 0 for no effect and ±100 for the full control effect; potency is the fitted concentration of half-maximal effect.

| Structure (SMILES) | activity change, negative = inhibition | Potency |
| --- | --- | --- |
| Cc1ccc(N(C)C(=O)CCS(=O)(=O)c2cc3c(cc2Cl)NC(=O)CO3)cc1 | inactive: -10.1% |  |
| CC(C)Cn1c(N)c(C(=O)COC(=O)/C=C/c2ccccc2)c(=O)n(C)c1=O |  | active: 6.51 µM |
| COc1ccc(NC(=O)C2=CC(c3ccco3)=NS(=O)(=O)N2C)cc1 | inactive: -20.9% |  |
| O=c1cc(-c2ccc(O)cc2)oc2cc(O)c([C@@H]3O[C@H](CO)[C@@H](O)[C@H](O)[C@H]3O)c(O)c12 | inactive: -2.86% |  |
| CCOc1ccccc1NC(=O)CSc1nncc2ccccc12 |  | active: 23.1 µM |
| CC(C)c1nnc(NC(=O)c2nc(S(=O)(=O)Cc3ccccc3)ncc2Cl)s1 | inactive: 3.65% |  |
| Cc1onc(-c2c(Cl)cccc2Cl)c1C(=O)N[C@@H]1C(=O)N2[C@@H]1SC(C)(C)[C@@H]2C(=O)O | inactive: 2.26% |  |
| CCCOc1ccc(CNC(=O)C2CCN(c3nn4c(=O)cc(C)nc4s3)CC2)cc1 | inactive: 22% |  |
| CC1CCc2cc(F)ccc2N1C(=O)CSc1nnc2c(n1)[nH]c1ccc(F)cc12 (configuration not stated) |  | active: 20.6 µM |
| Cn1c2ccc(F)cc2c2nnc(SCCN3CCCCC3)nc21 | inactive: -17.9% |  |
| O=C(NC(Cc1ccccc1)C(=O)O)/C(=C\c1ccc(Cl)cc1)NC(=O)c1ccco1 (configuration not stated) | inactive: 4.3% |  |
| Cc1cn(C2C=CC(CO)O2)c(=O)[nH]c1=O (configuration not stated) | inactive: 11.4% |  |
| CCCc1ccc(NC(=O)C2CCN(c3cnccn3)CC2)cc1 | inactive: -14.6% |  |
| COc1ccc(S(=O)(=O)Cc2ccc(C(=O)NC3CCCCC3)o2)cc1 | inactive: 4.69% |  |
| CN=C1S/C(=C/c2cn(CC(=O)OC)c3ccccc23)C(=O)N1C | inactive: 0.146% |  |
| Cc1cnc(NC(=O)C2CC(=O)N(c3cccc(Cl)c3)C2)s1 (configuration not stated) |  | active: 2.06 µM |
| COCCCNC(=S)Nc1cccc2ncccc12 |  | active: 13 µM |
| Cc1nc2c3ccccc3nc(NNC(=O)CCC(=O)N3CCN(c4ccccc4)CC3)n2n1 | inactive: 2.41% |  |
| c1ccc2[nH]c(-c3ccnc4ccccc34)nc2c1 | inactive: 0.457% |  |
| CCOc1ccc(CNC(=O)c2cc3oc4ccccc4c3n2C)cc1 | inactive: 28.1% |  |
| CCC(CC)c1nnc(NC(=O)c2cccc(S(=O)(=O)N3CCc4ccccc43)c2)s1 |  | active: 20.6 µM |
| O=C1[C@H](Cc2ccccc2)NCC=CC[C@@H](c2ccc(Cl)cc2)N1Cc1ccccc1 | inactive: 3.08% |  |
| C[C@H]1CCC[C@]2(O[C@@H](CCO)C[C@H](O)[C@H]2O)O1 | inactive: 11.6% |  |
| CCN1C(=O)[C@@H]2[C@@H](c3ccc(-c4ccccc4)cc3)N3CCC[C@@]3(C(=O)OC)[C@@H]2C1=O | inactive: 4.43% |  |
| CCN(CC)c1cc(C)c2cc(NC(=O)c3ccccc3OC)ccc2n1 | inactive: -8.94% [at 9.27 µM] |  |
| O=C(Nc1nc(-c2cccs2)cs1)c1ccc(S(=O)(=O)N2CCCCC2)cc1 |  | active: 20.6 µM |

| Structure (SMILES) | activity change, negative = inhibition | Potency |
| --- | --- | --- |
| O=C(C1=C[C@H](c2ccc(Br)cc2)C[C@H](OCCCCO)O1)N1CCN(Cc2ccccc2)CC1 | inactive: -0.524% |  |
| COC(=O)/C(=C\c1c[nH]c2ccccc12)NC(C)=O | inactive: -1.85% |  |
| CCC(=O)NCc1cc(-c2nn(C)c(=O)c3ccccc23)ccc1OC | inactive: -4.14% |  |
| O=C1Nc2ccccc2C1=Nc1ccc(-c2nnc3n2CCCCC3)cc1 | inactive: 0.382% |  |
| N#C/C(=C\c1cccc([N+](=O)[O-])c1)c1nnc2n1CCCCC2 | inactive: 1.29% |  |
| COc1cc(NC(=O)c2ccccc2)ccc1NC(=O)c1cc2ccccc2o1 | inactive: 3.78% |  |
| C[C@@H]1CCC[C@@]2(O[C@H](CCO)C[C@H](O)[C@H]2O)O1 | inactive: -18.3% |  |
| COc1ccccc1N(CC(=O)NCCSCc1ccccc1)S(=O)(=O)c1ccc(C)cc1 | inactive: -21.7% |  |
| Cc1cc(C)cc(OCC(=O)NCCc2nc3ccccc3[nH]2)c1 | inactive: -6.75% |  |
| CCOC(=O)c1cc2c(=O)n3ccccc3nc2n(CCOC)c1=NC(=O)c1c(-c2c(F)cccc2Cl)noc1C | inactive: 0% [at 9.27 µM] |  |
| OCC1OC(n2cnc3c(NCc4ccccc4O)ncnc32)C(O)C1O (configuration not stated) |  | active: 18.4 µM |
| C=CCC[C@@H](Cc1ccc(F)cc1)C(=O)OC[C@H](Cc1c[nH]c2ccccc12)NC(=O)[C@@H](CC=C)CC(=O)NCCO | inactive: 9.37% |  |
| C=CC[C@@H](CC(=O)N[C@H](CO)Cc1ccccc1)C(=O)NC[C@H](OC(=O)[C@@H](CC=C)Cc1ccc(F)cc1)c1ccccc1 | inactive: -12.3% |  |
| Cc1cc(C)c(NC(=O)Cn2nnc(C(=O)NCc3cccs3)c2N)c(C)c1 | inactive: -4.7% [at 9.27 µM] |  |
| Cn1c(/C=C/c2ccc(Cl)cc2Cl)c([N+](=O)[O-])c(=O)n(C)c1=O |  | active: 25.9 µM |
| CC(C)NC(=O)/C(C#N)=C/c1ccc(N(C)C)o1 | inactive: 4% |  |
| COC(=O)CCN(c1ccccc1)S(=O)(=O)c1cc(-c2cc(C)no2)ccc1OC | inactive: 25.7% |  |
| O=C(Nc1cccnc1Cl)c1cc(-c2cccc(Cl)c2)on1 | inactive: 9.96% |  |
| CCOc1ccc(NC(=O)Cn2cc(C(=O)c3ccco3)c3ccccc32)cc1 | inactive: -19.2% |  |
| CCO[C@@H]1OC(C(=O)NCc2nc3ccccc3[nH]2)=C[C@H](c2cn(C(C)=O)c3ccccc23)[C@H]1CCCO | inactive: -22.6% |  |
| O=C(Cn1c(=O)c2cccn2c2ccccc21)NCCc1ccccc1 | inactive: 7.19% |  |
| COc1cccc(-c2nn3c(-c4cc(C)[nH]n4)nnc3s2)c1 | inactive: -16.3% |  |
| COc1ccc(NC(=O)CNC(=O)Cn2c(C)cc3ccccc3c2=O)cc1OC | inactive: -18.7% [at 9.27 µM] |  |
| COc1ccc(Nc2ncc(C(=O)N3CCN(c4ccc(F)cc4)CC3)c3ccccc23)cc1 | inactive: -4.53% [at 9.27 µM] |  |
| CC(=O)N1CCCC1C(=O)O (configuration not stated) | inactive: -2.44% |  |
| Cc1nc2scc(C)n2c(=O)c1S(=O)(=O)N1CCN(c2cccc(C(F)(F)F)c2)CC1 | inactive: -14.4% |  |
